Laboratory results from PubChem BioAssay AID1814 (Broad Institute, 2009).
Among all 300,000 compounds or so, about 22,000 (7.3%) were called active. Inconclusive results, whose numbers are uncertain, are shown with a selection of clear calls. No stated cut-off is given here; in the data, active means activity score below about -60%; inconclusive means mostly about -28% to -61%; inactive means positive scores.

Experiment: Activators via SNCA 5'UTR binding, MLPCN (AID 1814)
Details: alpha-synuclein 5'UTR reporter, activators screen; hits give low values; tested at 7.5 µM

Compound | activity score
COc1ccccc1CNC(=O)c1cccc(N(C)C)c1 | inconclusive: -52.3%
Cc1nc(-c2ccc(Cl)cc2)sc1C1(C)CC(c2ccc(OC(F)(F)F)cc2)=NO1 (configuration not stated) | inconclusive: -59.4%
C/C(=N\NC(=O)COc1ccccc1)c1cccs1 | active: -85%
CCOc1ccc2nc(NC(=O)CN3C(=O)NC4(CCCC4)C3=O)sc2c1 | inconclusive: -61%
COc1ccc(C(=O)NCC2OCCc3ccccc32)c(O)c1 (configuration not stated) | active: -88.4%
COc1ccccc1N1CCN(c2ccnc3cc(Cl)ccc23)CC1 | inactive: 86.6%
CCCCNC(=O)c1cc2cc(OC)ccc2[nH]1 | inconclusive: -60.3%
C/C(Cn1cnc([N+](=O)[O-])n1)=N\NC(=O)c1cccc(F)c1 | inconclusive: -60.6%
Cc1ccc(NC(=O)c2cc3ccccc3oc2=O)cc1S(=O)(=O)N(C)C | inactive: 72.9%
COc1ccc(-c2noc(CCCC(=O)O)n2)cc1 | inactive: 89%
O=C(CCNC(=O)c1ccc(Br)cc1)NCC1COc2ccccc2O1 (configuration not stated) | inconclusive: -50.1%
CN(C)c1nc(-c2ccccc2)ns1 | inconclusive: -55.5%
CCc1ccc2nc3n[nH]c(N)c3cc2c1 | inconclusive: -53.7%
Cc1ccc2c(C)nc(Nc3nc(CSc4nc5ccccc5[nH]4)cc(=O)[nH]3)nc2c1 | inactive: 55.4%
Cc1sc2ncnc(Sc3ccccc3C(=O)Nc3ccc(C#N)cc3)c2c1C | inconclusive: -50.8%
Cc1ccc(C(=O)NC(=S)N(C)Cc2ccccc2)cc1 | inconclusive: -38.2%
CC(=O)c1ccc(NC(=O)C(C)OC(=O)C(C)Oc2cccc(C)c2)cc1 (configuration not stated) | inconclusive: -20.3%
O=Cc1s/c(=N\S(=O)(=O)c2ccccc2)n(CCCCl)c1Cl | inactive: 69.8%
CSCC[C@H](NC(=O)c1nn(C)c(=O)c2ccccc12)c1nc2ccccc2[nH]1 | inconclusive: -40.4%
CCc1ccc(-c2nc(CSCC(=O)NC3CC3)c(C)o2)cc1 | inactive: 70.6%
Cc1ccc(N/N=C(\C#N)C(=O)c2ccsc2)cc1 | inconclusive: -50.1%
Cc1ccc(-c2ccnc(-c3ccc(O)cc3)n2)cc1 | inconclusive: -60%
N#Cc1sc2nc(-c3cccs3)cc(-c3ccc(Cl)cc3)c2c1N | inconclusive: -56.8%
C[C@]12CC[C@H]3C(=CCc4cc(O)ccc43)[C@@H]1CCC2=O | inconclusive: -43.1%
COc1ccc(NC(=O)CN(C)C(=O)/C=C/c2ccc(S(=O)(=O)N3CCCCCC3)cc2)cc1 | inactive: 59.5%

Compound | activity score
Cc1ccc(Nc2nnc(SCC(=O)Nc3cccc(S(=O)(=O)NC4=NCCCCC4)c3)s2)cc1 | inconclusive: -54.9%
Cc1ccc(SCc2ccc(C(=O)Nc3nccs3)o2)cc1 | active: -78.5%
O=C(CSc1nnc(-c2ccccc2)o1)NC1CC1 | inconclusive: -44.3%
c1ccc(CCc2nc(-c3ccccn3)no2)cc1 | inconclusive: -56.9%
COc1ccccc1/C=C/C(=O)Nc1cccc(C(C)=O)c1 | inconclusive: -42.4%
CC(=O)Oc1c(Cl)cc(Cl)cc1/C=C/c1ccc2ccccc2n1 | active: -205%
O=C(Nc1ccc(Cl)cc1C(F)(F)F)c1ccccc1 | inconclusive: -51%
Clc1ccc(-c2csc(-c3cccnc3)n2)s1 | active: -70.5%
Cc1ccc(S(=O)(=O)N/N=C/c2cc(Br)c(C)o2)cc1 | inconclusive: -60.7%
O=C(Nc1ccccc1Cl)OC1CCCCC1 | inconclusive: -50.7%
CNc1nc(SC)n(C)c(=O)c1N=O | inconclusive: -60.9%
CC[C@H](C)/C=C(C)/C=C/C(=O)Cc1cc(O)c(C)c(O)c1C=O | inconclusive: -59.9%
C/C(=N\N(C)C)C1=C(O)c2ccccc2C1=O | inconclusive: -57.5%
O=C(CCl)N1CCCC1c1ccc2c(c1)OCCO2 (configuration not stated) | active: -152%
CCOC(=O)CSC1=C(C#N)C(c2sccc2C)CC(=O)N1 (configuration not stated) | inactive: 75%
CCN(CC)C(=O)CSC1=Nc2ccccc2C2=NC(c3ccccc3)C(=O)N12 (configuration not stated) | inconclusive: -50.9%
COc1ccc(-c2nc(-c3ccccn3)no2)cc1 | inactive: 107%
O=C(N/N=C/C=C\c1ccccc1)c1cnccn1 | inconclusive: -55.8%
O=C(N/N=C/c1ccc(N2CCOCC2)s1)c1ccccc1Br | inconclusive: -60.8%
COc1ccccc1C(=O)Nc1nc2ccccc2[nH]1 | inactive: 100%
O=C(Nc1ccncc1)c1ccccc1Cl | inconclusive: -41.2%
Cc1cc(C=C2C(=O)c3ccccc3C2=O)c(C)n1-c1cccc(C(=O)O)c1 | inconclusive: -58.4%
COc1ccc(O)c(/C=N/N2CCOCC2)c1 | inconclusive: -48.8%
Cc1cc(N2CCCCC2)nc2ccccc12 | inconclusive: -49.7%
Cc1ccc(C(=O)NC2CCCCNC2=O)cc1 (configuration not stated) | inconclusive: -51.1%

Compound | activity score
N#C/C(=C\Nc1ccc2c(c1)OCCO2)c1nc(-c2ccccc2)cs1 | inconclusive: -35.3%
COc1ccc(OCc2cc(C(=O)N3CCCC3)no2)c2ccccc12 | active: -148%
O=C(/C=C/c1cccc(Cl)c1)c1nc2ccccc2[nH]1 | inconclusive: -60.5%
CCCCCCOc1ccc(/C(C)=N/NC2=NCCN2)cc1 | inconclusive: -45.7%
Cc1ccc(N2C(SCC(=O)O)=NC(=Nc3cccc(C)c3)C23CCCC3)cc1 | inconclusive: -53.6%
O=[N+]([O-])c1ccccc1N/N=C1\CCc2ccccc21 | active: -187%
COc1ccc(-c2csc(NC(=O)CCCc3cccs3)n2)cc1 | inconclusive: -38.5%
CN1CCCNc2nc3ccccc3nc21 | inconclusive: -47%
O=C(COC(=O)CNC(=O)c1cccs1)Nc1ccccc1C(F)(F)F | active: -94.7%
N/C(=N/OC(=O)c1cccc([N+](=O)[O-])c1)c1cccc([N+](=O)[O-])c1 | inconclusive: -56.1%
O=C(CSc1n[nH]c(-c2ccccc2)n1)c1ccc(O)c(O)c1 | inconclusive: -48.6%
COc1cccc(C2CC(=O)Nc3cc4c(cc32)CCC4)c1 (configuration not stated) | inactive: 84.2%
COc1ccc(-c2nc3cc([N+](=O)[O-])ccc3o2)cc1 | active: -231%
N#CCCn1cc(C=C(C#N)C#N)c(-c2ccc(-c3ccccc3)cc2)n1 | inconclusive: -45%
Cc1cccc(NC(=S)N/N=C/c2cccc(O)c2)c1C | inconclusive: -36.7%
Cc1ccccc1C(=O)NC(=S)Nc1sc2c(c1C#N)CCCC2 | inconclusive: -59.7%
CCC(=O)Nc1cc2nn(-c3ccc(C)cc3)nc2cc1C | inactive: 80.3%
Cc1ccc(O)c(NC(=O)c2cc(-c3cccs3)on2)c1 | active: -231%
CC1(C)CC(=O)C(C=Nc2ccccc2)=C(O)C1 | inconclusive: -29%
COC(=O)c1ccccc1NC(=O)c1cc(-c2cccs2)on1 | inconclusive: -49.2%
CC1CCCN(c2ncnc3c2cnn3-c2ccccc2)C1 (configuration not stated) | inactive: 60.7%
O=C1c2ccccc2C(=O)N1CCCOc1ccccc1 | active: -61.8%
CCN(CC)c1ccc(/C=C/c2cccc[n+]2C)c(OC)c1 | inactive: 59.1%
C/C(=N\Nc1nc2c(s1)CCCC2)c1ccc(Cl)cc1 | active: -100%
Cc1ccccc1Nc1c(-c2ccccn2)nc2ccccn12 | inactive: 63.7%

Compound | activity score
CCOC(=O)c1ccc2[nH]c3c(c2c1)CCCC3O (configuration not stated) | inconclusive: -58.8%
CCCc1c(C)c2ccc(OCC(C)=O)cc2oc1=O | active: -143%
C/C(=N\NC(N)=S)C1C2C3CC4C5CC(C42)C1C53 (configuration not stated) | inconclusive: -55.7%
CN(C)CCC(=O)C(Cc1ccccc1)c1ccccc1 (configuration not stated) | inactive: 98.9%
CC1C2CC(C/C2=N/NC(=O)c2cccs2)C1(C)C (configuration not stated) | active: -73.6%
S=C(Nc1ccc(OCc2ccccc2)cc1)Nc1cccc(Cl)c1Cl | active: -102%
Cc1ccc(C(=O)c2cc([N+](=O)[O-])ccc2N2CCCCC2)c(C)c1 | inactive: 69.5%
COc1ccc(C(=O)Nc2nc3ccccc3[nH]2)cc1 | inactive: 70.7%
FC(F)(F)c1cnc2c(c1)Nc1ccccc1S2 | inconclusive: -43.3%
CCCCC(=NCCc1c(C)[nH]c2ccc(OC)cc12)C1=C(O)CC(c2ccccc2)CC1=O (configuration not stated) | inactive: 119%
CC(CS(=O)(=O)c1ccccc1[N+](=O)[O-])N1CCOCC1 (configuration not stated) | active: -69.7%
Cc1ccc(SC(C)C(=O)NCc2ccc(F)cc2)cc1 (configuration not stated) | inconclusive: -32.4%
O=C(Nc1nc2c(F)cc(F)cc2s1)c1ccco1 | inconclusive: -56.4%
Cc1c(C(=O)Nc2ccc(F)cc2)nnn1-c1cccc(C(F)(F)F)c1 | inconclusive: -56.2%
COc1ccc(/C=N/NC(=O)c2nc(-c3ccccc3)cc(-c3ccccc3)n2)cc1OC | inconclusive: -58.6%
CCc1ccc2nc(N(CCCN(C)C)C(=O)c3ccc(S(=O)(=O)N(C)C4CCCCC4)cc3)sc2c1 | inactive: 55%
CC1Oc2ccccc2OC1C(=O)Nc1nccs1 (configuration not stated) | inconclusive: -32.8%
COc1cccc(C2C=C(c3ccc(OC)cc3OC)Nc3nnnn32)c1 (configuration not stated) | inconclusive: -45.1%
CCCCc1nc2cc(C(=O)NCc3cc(C)n(C)n3)ccc2o1 | inconclusive: -57.2%
COc1ccc(Cl)c2sc(NC(=O)C3=COCCO3)nc12 | inconclusive: -41%
CCC(=O)Nc1ccc(C(=O)CSc2nc3ccc(C)cc3[nH]2)cc1 | inconclusive: -60.5%
C=CCn1c(NCc2c[nH]c3ccccc23)nc2ccccc21 | inconclusive: -59.8%
